Experimental data taken from PubChem BioAssay AID485344 (National Center for Advancing Translational Sciences (NCATS), 2010).
Out of some 340,000 compounds screened, about 6,900 (2%) were called active. Cut-off read from the data, not from the text of the source: active = inhibition above about 30%; inactive = below that, where a call was filed. The list shows a part of the results, in another mix than the full data. Where no call is shown, the source filed none.

molecular target: D(2) dopamine receptor (Homo sapiens) (UniProt P14416); test: HTS Assay for Allosteric Antagonists of the Human D2 Dopamine Receptor: Primary Screen for Antagonists; conditions: HEK293 TREx D2 cells, calcium flux, dopamine EC80; at 10 µM; stronger effect = higher value; note: 0% is about no effect
Summary of the method: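 Antagonism is scored as inhibition of an EC80 dopamine-evoked calcium signal in a force-coupled, tetracycline-inducible HEK293 T-REx D2 line, with compound present 180 s before agonist.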

UniProt P14416, sequence (P14416 whole entry, looked up): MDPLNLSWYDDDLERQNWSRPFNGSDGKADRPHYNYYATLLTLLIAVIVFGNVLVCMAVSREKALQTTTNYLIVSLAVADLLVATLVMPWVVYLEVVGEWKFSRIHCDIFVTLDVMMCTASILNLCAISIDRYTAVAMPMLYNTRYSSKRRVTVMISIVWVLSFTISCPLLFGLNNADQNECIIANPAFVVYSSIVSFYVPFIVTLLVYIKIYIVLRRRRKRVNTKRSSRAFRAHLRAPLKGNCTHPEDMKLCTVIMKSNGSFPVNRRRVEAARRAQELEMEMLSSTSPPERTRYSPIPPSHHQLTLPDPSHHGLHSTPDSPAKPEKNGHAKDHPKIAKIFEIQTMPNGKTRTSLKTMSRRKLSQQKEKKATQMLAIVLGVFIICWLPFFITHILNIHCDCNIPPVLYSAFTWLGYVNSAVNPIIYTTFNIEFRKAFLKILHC

SMILES	inhibition
Cc1cc(C)c2c(N)c(C(=O)Nc3ccccc3C(F)(F)F)sc2n1	-5.28%
O=C(NCc1ccc(Cl)cc1Cl)c1cccc(N2CCCS2(=O)=O)c1	10.8%
CCn1cc2nc(SCc3cccc(C(F)(F)F)c3)n(Cc3ccc(C)cc3)c(=O)c2n1	-0.472%
Cc1cc(F)ccc1NC(=O)c1c(C)oc2c1C1=NCCN1C=N2	-13.5%
CCOC(=O)N1CCC(NCCNC(=O)c2ccccc2Cl)CC1	active: 56.3%
COc1ccc(-c2cc(C(=O)Nc3cnn(Cc4ccc(F)cc4)c3)no2)cc1OC	14.4%
Cc1ccccc1NC(=O)Cn1nnc(-c2ccc(CN3CCC(C)CC3)cc2)n1	active: 33.3%
O=C(Cc1c(C(=O)O)[nH]c2ccccc12)Nc1cccc(C(F)(F)F)c1	5.24%
CCOc1ccc(OCC)c(NS(=O)(=O)c2ccc3c(c2)CCN3C(=O)C2CCC2)c1	12.1%
Cc1c(Cl)ccc2sc(N3CCN(C(=O)CS(=O)(=O)c4ccccc4)CC3)nc12	-13.7%
CCOc1ccc(CNC(=O)Cn2c(=O)c3cccn3c3ccccc32)cc1	4.04%
CCCN1CCN(CCCNC(=O)c2c(C)nn(-c3ccc(F)cc3)c2-n2cccc2)CC1	4.67%
O=C(Nc1ccccc1Br)N1CCC(CN2CCCC2)CC1	1.69%
Cc1ccc(OCC(=O)Nc2ccc(-c3nc4ccccc4o3)cc2)c(C)c1	-2.32%
CCC(=O)N1CCc2cc(S(=O)(=O)NC(C(=O)Nc3cc(OC)cc(OC)c3)C(C)C)ccc21 (centres undefined)	-13.8%
CCc1ccc(C(=O)NC2=NC(c3ccccc3F)CC(=O)N2)cc1 (centres undefined)	5.3%
CCOC(=O)c1c(NC(=O)c2ccc(C)c(C)c2)sc2c1CCCCC2	14.7%
COCCCNC(=O)c1ccc2nc(CCc3ccccc3)oc2c1	5.54%
O=C(Nc1ccc(Cl)cc1)N1CCC(c2nc(-c3ccccc3Cl)no2)CC1	active: 31.2%
COC(=O)c1cc2oc3ccccc3c2n1CC(=O)Nc1ccc(C)cc1C	19.7%
CN(C)CCNC(=O)c1ccc2c(c1)N(Cc1c(F)cccc1Cl)C(=O)c1ccccc1S2	3.61%
CCOC(=O)Cn1c(=O)oc2cc(S(=O)(=O)N3CCN(c4cc(C)ccc4C)CC3)ccc21	-5.87%
Cc1nnc(N2CCCC(C(=O)NCCc3ccccc3)C2)c2nn(-c3ccccc3)c(C)c12 (centres undefined)	-12.5%
Cc1cc(C)c(NC(=O)Cn2c(=O)n(Cc3ccc(C(=O)NCc4ccco4)cc3)c(=O)c3sccc32)c(C)c1	15.6%

SMILES	inhibition
Cc1ccc(S(=O)(=O)c2nc(-c3cccc(Cl)c3)oc2NCc2ccccc2)cc1	-8.08%
Cc1nc2c(c(C)nn2-c2ccccc2)c(C)c1CCC(=O)NCc1ccccc1	-6.26%
CCc1cccc(NC(=O)C2CCN(S(=O)(=O)c3cccc(-c4noc(C)n4)c3)CC2)c1	-14.5%
CCN1CCN(c2cc(C)c3cc(NC(=O)c4ccc(OC)c(OC)c4)ccc3n2)CC1	3.51%
CCN1CCN(Cc2c(O)ccc3cc(-c4ccc(OC)cc4)c(=O)oc23)CC1	-2.52%
COc1ccc(C)cc1Nc1nc(N)c2cc(OC)c(OC)cc2n1	10.1%
CC(=O)c1cccc(NC(=O)c2nc(-c3ccccc3)n(-c3ccccc3C)n2)c1	8.59%
COc1ccc(C2c3cccn3CCN2S(=O)(=O)c2ccc([N+](=O)[O-])cc2)cc1 (centres undefined)	18.5%
O=C(NCC1CCCN(Cc2ccccc2F)C1)c1cccc(C(F)(F)F)c1 (centres undefined)	active: 31.5%
CCC1CN(C(=O)C2CCN(S(=O)(=O)c3c(C)noc3/C=C/c3ccccc3F)CC2)c2cc(C)ccc2O1 (centres undefined)	-22.2%
Cn1c(CCC(=O)O)nc2cc(S(=O)(=O)N3CCCCC3)ccc21	active: 32.5%
COCCN1CCN(Cc2ccc(C(=O)NC(C)C)cc2)C(=O)C1=O	7.5%
CCCCn1c(SCC(=O)NCc2ccc(C)cc2)nc2c(sc3ccccc32)c1=O	8.07%
COc1ccc(CNC(=O)C(C)n2c(=O)cc(C)c3c(C)nn(-c4ccccc4)c32)cc1 (centres undefined)	-11.2%
COc1ccc(NC(=O)c2oc3ccccc3c2NC(=O)Cc2cccs2)c(OC)c1	-8.74%
COc1ccc(N(CC(=O)NCCc2ccc(Cl)cc2)S(=O)(=O)c2c(C)nn(C)c2C)cc1	1.49%
COc1ccc(N2CCN(C(=O)Nc3ccc(S(=O)(=O)N(C)C)cc3)CC2)cc1	active: 41.1%
Cc1ccc(Sc2ccc(N3CCCC(C(=O)Nc4ccc(F)cc4F)C3)nn2)cc1 (centres undefined)	9.17%
CCOC(=O)C1CCN(C(=O)c2nn(-c3ccc(OC)cc3)c(=O)c3c2c2ccccc2n3C)CC1	11.8%
CC1CCN(CC(=O)N2CCc3ccccc32)CC1	active: 53.6%
Cc1ccc(-c2noc(-c3nnn(CC(=O)Nc4cc(Cl)ccc4C)c3N)n2)cc1	6.8%
Cc1nn(C)c2c1c(C(F)(F)F)cc(=O)n2CC(=O)N1CCC(C)CC1	11.2%
Cc1ccc(CSc2nc3cccnc3n2Cc2ccc(C(=O)NCCc3cccs3)cc2)cc1	-6.37%
O=C(NC1=NCCS1)c1cc(-c2cccnc2)nc2ccccc12	active: 33.2%

SMILES	inhibition
CC1CCN(S(=O)(=O)c2cc(C(=O)N3CCN(c4ccccc4F)CC3)n(C)c2)CC1	0.372%
COc1ccc(CN2CCCN(CC(=O)Nc3ccc4c(c3)OCCO4)S2(=O)=O)cc1	-8.79%
COc1ccc(C2CC(=O)N(CC(=O)Nc3cccc(C)c3C)c3ccccc3S2)cc1OC (centres undefined)	24.5%
Cc1ccc(C(=O)N2CCC(C(N)=O)CC2)cc1NC(=O)c1nsc2ccccc12	-27.5%
COc1ccccc1CNC(=O)CCCn1c(=O)c2ccccc2n(Cc2ccc(C)cc2)c1=O	0.0126%
COc1ccc(-n2nc(C(=O)N3CCN(c4cccc(C)c4)C(C)C3)c3c4ccccc4n(C)c3c2=O)cc1 (centres undefined)	-3.83%
CCCn1ccc2c(OCC(=O)Nc3ccc(F)cc3F)cccc2c1=O	-3.47%
Cc1cccc(OCC(=O)Nc2ccc3c(c2)N(C)C(=O)c2ccccc2S3)c1	5.3%
NC(=O)C1=C[C@H](c2ccc3c(c2)OCO3)C[C@H](OCc2ccc(CO)cc2)O1	active: 33.1%
Cc1cccc(NC(=O)CSc2nc3c([nH]c4ccccc43)c(=O)n2-c2ccc(F)cc2)c1C	-12.7%
COc1ccc(NC(=O)c2ccco2)cc1NC(=O)COc1ccccc1Cl	11.4%
Cc1ccc(C(=O)N/C(=C\c2cn(S(=O)(=O)N(C)C)c3ccccc23)C(=O)NCCCn2ccnc2)cc1	0.556%
COc1ccc(C(=O)N2CCC(C(=O)Nc3ccccc3Cl)CC2)cc1	16.9%
CCCn1cc(S(=O)(=O)c2ccccc2)c(=O)c2cc(F)c(N3CCCC3)cc21	3.43%
COc1ccc(S(N)(=O)=O)cc1C(=O)NCCCN1CCN(c2cccc(Cl)c2)CC1	active: 49.6%
CCc1ccccc1NC(=O)c1cc(S(=O)(=O)NC2CCCC2)ccc1F	-12%
CCN1CCN(CCOCCOc2ccccc2-c2ccccc2)CC1	active: 60.1%
Cc1ccc(NC(=O)Cn2cc(S(=O)(=O)N3CCCC3)c(S(=O)(=O)N3CCCC3)c2)c(C)c1	-0.96%
O=C(NCCc1ccc(Cl)cc1)c1cccn1-c1nnc(N2CCCC2)s1	7.8%
COCCn1c(C)cc(C(=O)Cn2nc(C(=O)O)c3ccccc3c2=O)c1C	active: 32.4%
CCOc1ccccc1N(C)C(=O)NCc1noc2ccccc12	4.75%
CCOc1ccccc1NS(=O)(=O)c1ccc2oc(=O)c3ncn(C)c3c2c1	0.32%
CCn1cc(C(=O)NC(C)c2ccccc2)c(=O)c2cc(S(=O)(=O)N3CCc4ccccc4C3)ccc21 (centres undefined)	2.3%
Cc1ccc(-n2nc(C)c3nc(CCC(=O)Nc4ccc(F)cc4)c(=O)n(C)c32)cc1	6.75%

SMILES	inhibition
COc1ccccc1NC(=O)C1=C(C)Nc2ncnn2C1c1ccccn1 (centres undefined)	-3.08%
CC(C)Sc1ncc(Cl)c(C(=O)Nc2ccc(S(=O)(=O)N3CCCCC3C)cc2)n1 (centres undefined)	14.6%
COc1ccc(OC)c(CNC(=O)c2cccc(NC(=O)N3CCSc4ncccc43)c2)c1	2.54%
Cc1ccc(C)c(N(CC(=O)NC2CCCC2)C(=O)CCC(=O)Nc2cc(C)on2)c1	active: 36.3%
COc1ccccc1N1CCN(CC(=O)Nc2ccc(Cl)c(C(F)(F)F)c2)CC1	active: 80.7%
O=c1c2oc3ccccc3c2n(Cc2cccc(C(F)(F)F)c2)c(=O)n1Cc1ccc2c(c1)OCO2	-5.96%
Cc1cccc(C(=O)Nc2cccc(C(=O)OCc3cc(=O)n4ccsc4n3)c2)c1	15.2%
CCOC(=O)c1ccc2ncc(C(=O)OCC)c(Nc3ccc(C)c(Br)c3)c2c1	-22.6%
CCC(C(=O)NCc1ccccc1)n1ncn2c(cc3occc32)c1=O (centres undefined)	-0.348%
Cc1ccc(NC(=O)c2cc3c(=O)n(Cc4cccnc4)ccc3nc2C)cc1F	1.24%
COc1ccc(Br)cc1CNC(=O)CN1C(=O)CSc2ccc(S(=O)(=O)N3CCOCC3)cc21	6.32%
COc1ccc(OC(C)C(=O)NCc2nc(-c3ccc(Cl)cc3)no2)cc1 (centres undefined)	-23.9%
COc1ccc(NC(=O)CNS(=O)(=O)c2cccs2)c(OC)c1	-22.1%
CCOC(=O)c1cccc(NC(=O)c2cc(-c3ccc(Cl)s3)nc3ccccc23)c1	-1.89%
O=C(NCCc1ccccc1)c1ccc(CSc2nc3ccncc3n2Cc2ccccc2)cc1	-2.6%
Cc1ccc(NC(=O)CSc2nc(C)cc(C)c2C(=O)Nc2cccc(C)c2)cc1	3.84%
COc1ccc(NC(=O)Cn2ncc3c([nH]c4ccccc43)c2=O)cc1Cl	11.4%
CCN(CC)CCCNC(=O)c1cn(C)c2ccc(S(=O)(=O)N3CCOCC3)cc2c1=O	11.5%
O=C(NC1CC2CCCC(C1)N2Cc1ccccc1)c1ccc([N+](=O)[O-])cc1 (centres undefined)	active: 86.6%
COc1cc(OC)cc(C(=O)Nc2ccc(S(=O)(=O)Nc3onc(C)c3C)cc2)c1	10.7%
O=C(Cn1nc(C(F)(F)F)c2c1CCCC2)Nc1ccc(Cl)cc1	-3.23%
CCOC(=O)c1c(C)[nH]c(CCC(=O)Nc2cc(C)cc(C)c2)c1C	7.51%
